This note sets out measurements from the supplement of paper PMC11876631.

The labels stand for the following.
B1: metL F638A (protein)
chain: MSVIAQAGAKGRQLHKFGGSSLADVKCYLRVAGIMAEYSQPDDMMVVSAAGSTTNQLINWLKLSQTDRLSAHQVQQTLRRYQCDLISGLLPAEEADSLISAFVSDLERLAALLDSGINDAVYAEVVGHGEVWSARLMSAVLNQQGLPAAWLDAREFLRAERAAQPQVDEGLSYPLLQQLLVQHPGKRLVVTGFISRNNAGETVLLGRNGSDYSATQIGALAGVSRVTIWSDVAGVYSADPRKVKDACLLPLLRLDEASELARLAAPVLHARTLQPVSGSEIDLQLRCSYTPDQGSTRIERVLASGTGARIVTSHDDVCLIEFQVPASQDFKLAHKEIDQILKRAQVRPLAVGVHNDRQLLQFCYTSEVADSALKILDEAGLPGELRLRQGLALVAMVGAGVTRNPLHCHRFWQQLKGQPVEFTWQSDDGISLVAVLRTGPTESLIQGLHQSVFRAEKRIGLVLFGKGNIGSRWLELFAREQSTLSARTGFEFVLAGVVDSRRSLLSYDGLDASRALAFFNDEAVEQDEESLFLWMRAHPYDDLVVLDVTASQQLADQYLDFASHGFHVISANKLAGASDSNKYRQIHDAFEKTGRHWLYNATVGAGLPINHTVRDLIDSGDTILSISGIFSGTLSWLALQFDGSVPFTELVDQAWQQGLTEPDPRDDLSGKDVMRKLVILAREAGYNIEPDQVRVESLVPAHCEGGSIDHFFENGDELNEQMVQRLEAAREMGLVLRYVARFDANGKARVGVEAVREDHPLASLLPCDNVFAIESRWYRDNPLVIRGPGAGRDVTAGAIQSDINRLAQLL
B2: metL F638W (protein)
chain: B1 chain with A638W
B3: metL F638Q (protein)
chain: B1 chain with A638Q
B4: metL F638D (protein)
chain: B1 chain with A638D

Substitutions are numbered along the chain they refer to. In names and notes the source's numbering stands. ± gives the standard deviation of the averaged measurements. Laboratory Escherichia coli strains with one amino-acid change in an essential protein, pooled on minimal glucose agar with carbenicillin or gentamicin at twice the control MIC (plus kanamycin and chloramphenicol for the plasmids), 48 h. Fold change of barcode share against drug-free plates; higher = less susceptible. Active = above 20 in both replicates (the paper's putatively resistant). '<' = one read or none on drug, '>' = one read or none on a drug-free plate. Shares are relative, so most strains fall below 1 when a few take over. Listed are strains with at least 15 reads on both drug-free plates, and hits; most hits rest on fewer reference reads. Replicate rank correlation about 0.5. Edits are read from barcodes.

One data set has as its target Escherichia coli (laboratory strain). The data set can be described thus: barcode share on antibiotic plates over drug-free plates; higher = less susceptible. The settings on record: antibiotic: carbenicillin; 2× MIC (3.1 µg/mL). How it is done:
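A pool of E. coli strains, each edited to carry one amino-acid change in an essential protein, was grown for 48 h on minimal glucose agar with or without antibiotic; strain barcodes were sequenced; mean of two replicates.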
Take B1: the “fold change of barcode share” value came to 0.481 ± 0.097.
Consider B2, for which the “fold change of barcode share” value turned out to be 0.49 ± 0.1.
Regarding B3, the “fold change of barcode share” value was 0.585 ± 0.1.
B4: the “fold change of barcode share” value came to 0.593 ± 0.084.

Staying with this data set, now noted: antibiotic: gentamicin; 2× MIC (MIC 0.45 µg/mL).
As for B1, the “fold change of barcode share” value was found to be 0.0158 ± 0.015.
On to B2, for which the “fold change of barcode share” value turned out to be 0.00782 ± 0.009.
With B3, the “fold change of barcode share” value came to 0.00895 ± 0.0068.
On to B4, for which the “fold change of barcode share” value was 0.0139 ± 0.0022.
